In PubChem BioAssay AID652104 (National Center for Advancing Translational Sciences (NCATS), 2013):
Hit rate of the full screen: of about 410,000 compounds, about 7,200 (1.8%) were called active. Inconclusive results, whose numbers are uncertain, are shown with a selection of clear calls. Calls follow the shape of the dose curve; as a rule, active = well fitted activation curve with a large enough effect; inconclusive = small, poorly fitted or top-dose-only effect, or another doubt; inactive = no such curve, though single readings can be large or run the other way. No potency is given beside an inconclusive call; the fits are too rough.

Assay: qHTS of TDP-43 Inhibitors; also: nearly all actives have a fitted effect of over 50% in size; as to growth rescue (activation): % of control where 0% means no effect
Conditions: TDP-43 expressing yeast growth rescue, BacTiter-Glo, 24 h; growth rescue (activation): at 46.1 µM (top of the series) unless noted
Summary of the method: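 Galactose-induced TDP-43 yeast, OD600=0.02, compound pinned; 24 hr, 30 deg C; BacTiter-Glo luminescence for growth. Inhibitors of TDP-43 toxicity read as activators.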
Potency is read from the fitted curve at half-maximal effect; tags tell the direction and shape of the fitted curve.

Which Potency does the source give for `COc1ccccc1NC(=O)c1cc2c(C)nn(-c3ccccc3)c2s1` here?
Its Potency is inconclusive [activator, single point].

For `Cc1ccc(COc2ccsc2C(=O)O)cc1`, which Potency is on record?
Its Potency is inconclusive [activator, single point].

For `COc1ccc(N2CCN(C(=O)COCc3cc(-c4ccc5c(c4)OCO5)on3)CC2)cc1`, which Potency is on record?
Its Potency is “inactive”.

For `O=C1C(Cl)=C(NCC2CCCO2)C(=O)N1C1CCCCC1` (stereo not given), which Potency is on record?
The Potency was inconclusive [activator, single point].

Which Potency does the source give for `O=C(c1sc2cc(F)ccc2c1Cl)N1CCN(c2ccccc2)CC1` here?
The Potency was active: 17.8 µM.

For `Cc1noc2ncnc(Oc3ccc4ccccc4c3)c12`, which Potency is on record?
Its Potency is inconclusive [activator, single point].

With `COc1ccc(S(=O)(=O)NC(=O)C2(C)CCN2C(=O)Cc2cccc3ccccc23)cc1` (stereo not given) as the compound, how does the Potency read?
Its Potency is inconclusive [activator, partial curve, poor fit].

With `Cn1c(=O)cc(SCC(=O)N2CCN(c3ccccc3F)CC2)c2ccc(Cl)cc21` as the compound, how does the Potency read?
The Potency was inconclusive [activator, partial curve].

For `CCn1c(NCc2ccc3c(c2)OCO3)nc2ccccc21`, which Potency is on record?
The Potency was “inactive”.

Which Potency does the source give for `CCCOC(=O)c1ccc(NC(=O)C2C3C=CC(O3)C2C(=O)O)cc1` (stereo not given) here?
The Potency was inconclusive [activator, single point].

With `O=C(COc1ccc(Br)cc1)N1CCN(c2ccc([N+](=O)[O-])c(N3CCCCC3)c2)CC1` as the compound, how does the Potency read?
The Potency was active: 8.91 µM.

For `Cc1cc(C)c(S(C)(=O)=O)c(Oc2ccc(F)cc2)n1`, which Potency is on record?
Its Potency is inconclusive [activator, full curve, poor fit].

For `COc1ccc2c(c1)CC/C2=N\NC(=O)c1ccccc1`, which Potency is on record?
The Potency was “inactive”.

For `CCOc1ccc(CNC(=O)c2cc(-c3ccc(Cl)s3)nc3ccccc23)cc1`, which Potency is on record?
Its Potency is “inactive”.

For `C=CCC[C@H](Cc1ccc(F)cc1)C(=O)OC[C@@H](C)NC(=O)[C@@H](CC=C)CC(=O)N[C@H](CO)Cc1ccccc1`, which Potency is on record?
The Potency was “inactive”.

With `O=C(CNC(=O)c1ccco1)OCc1ccc(Br)cc1` as the compound, how does the Potency read?
The Potency was inconclusive [activator, partial curve].

With `Cc1ccc(NC(=O)C2CCN(c3nc(-c4ccc(C(C)C)cc4)no3)CC2)c(Cl)c1` as the compound, how does the Potency read?
The Potency was “inactive”.

With `Cc1cc(C)c[n+](CC(=O)c2cc3ccccc3oc2=O)c1` as the compound, how does the Potency read?
Its Potency is “inactive”.

Which Potency does the source give for `CC1CC1C(=O)Nc1ccc(-c2ccccc2)cc1` (stereo not given) here?
The Potency was inconclusive [activator, partial curve].

Which Potency does the source give for `CC1(c2ccc(Cl)cc2)CC(C)(C)N(C(=O)c2cccc(F)c2)c2ccccc21` (stereo not given) here?
Its Potency is “inactive”.

Which Potency does the source give for `CCCn1cc(S(=O)(=O)c2ccc(Cl)cc2)c(=O)c2cc(OC)ccc21` here?
Its Potency is inconclusive [activator, single point].

Which Potency does the source give for `CCC1COCCS(=O)(=O)N1Cc1ccc(C)cc1` (stereo not given) here?
The Potency was inconclusive [activator, partial curve].

With `CC1=CC(=O)C=C(C)C1=NOc1ccccc1[N+](=O)[O-]` as the compound, how does the Potency read?
The Potency was inconclusive [activator, partial curve].

With `COc1ccccc1CN(C)C(=O)c1cccc(S(=O)(=O)N2CCc3ccccc3C2)c1` as the compound, how does the Potency read?
Its Potency is inconclusive [activator, single point].

With `O=C(Nc1ccc(Nc2ccccc2)cc1)C(Cl)Cl` as the compound, how does the Potency read?
The Potency was inconclusive [activator, single point].

With `CCOC(=O)Cn1nnc(-c2ccc(SC)cc2)n1` as the compound, how does the Potency read?
The Potency was inconclusive [activator, partial curve].

With `CCOc1ccc(-c2cc(CCCC(=O)NCCc3cc(OC)c(OC)c(OC)c3)no2)cc1` as the compound, how does the Potency read?
Its Potency is inconclusive [activator, partial curve, poor fit].

Which Potency does the source give for `Cc1ccc(NC(=O)Cn2cc(C(=O)C3CCCCC3)c3ccccc32)cc1` here?
The Potency was “inactive”.

Which Potency does the source give for `C1=Nc2c(Nc3ccccc3)ncnc2Oc2ccccc21` here?
Its Potency is inconclusive [activator, single point].

For `COc1ccc(N2CCN(C(=O)COC(=O)c3oc4ccc(OC)cc4c3C)CC2)cc1`, which Potency is on record?
Its Potency is “inactive”.

For `O=[N+]([O-])c1ccc(C=NNC(=S)Nc2ccc(F)cc2)cc1`, which Potency is on record?
The Potency was “inactive”.

Which Potency does the source give for `COc1ccc(S(=O)(=O)NCCc2sc(-c3ccccc3)nc2C)cc1F` here?
The Potency was active: 22.4 µM.

For `CN(CCC#N)C(=O)COC(=O)c1c2c(nc3ccccc13)/C(=C/c1ccco1)CC2`, which Potency is on record?
Its Potency is inconclusive [activator, partial curve].

With `Cc1c(C(=O)N2CC(C(=O)N3CCCCC3)Oc3ccccc32)oc2ccccc12` (stereo not given) as the compound, how does the Potency read?
The Potency was inconclusive [activator, single point].

For `Cc1ccc(C)c(N2CCN(C(=O)C3CCCN(S(=O)(=O)c4cccc5nonc45)C3)CC2)c1` (stereo not given), which Potency is on record?
Its Potency is inconclusive [activator, single point].

With `CCCN(Cc1ccccc1)C(=S)Nc1ccc(OC(F)F)cc1` as the compound, how does the Potency read?
The Potency was inconclusive [activator, partial curve].

With `COC(=O)c1sccc1S(=O)(=O)N1CCN(c2ccc(C(C)=O)cc2)CC1` as the compound, how does the Potency read?
Its Potency is inconclusive [activator, partial curve].

Which Potency does the source give for `CC1c2ccccc2-c2ccccc2N1C` (stereo not given) here?
Its Potency is inconclusive [activator, single point].

Which Potency does the source give for `CN1CCN(c2ccc(-c3ccc4ccccc4n3)cc2)CC1` here?
The Potency was “inactive”.

Which Potency does the source give for `CCOc1ccccc1CSc1nc2ccccc2[nH]1` here?
The Potency was inconclusive [activator, single point].

Which Potency does the source give for `COC(=O)c1c(NC(=O)CC2SC(N)=NC2=O)sc2c1CCC(C(C)(C)C)C2` (stereo not given) here?
The Potency was inconclusive [activator, partial curve].

With `O=C(NNC(=O)c1cccc2ccccc12)c1ccc(Br)cc1` as the compound, how does the Potency read?
Its Potency is inconclusive [activator, partial curve].

Which Potency does the source give for `CC1Cc2ccccc2N1C(=O)CN(C)S(=O)(=O)c1cccc2cccnc12` (stereo not given) here?
The Potency was inconclusive [activator, full curve, poor fit].

Which Potency does the source give for `Cc1ccc(NC(=O)CSc2nccn2Cc2ccc3c(c2)OCO3)c(C)c1` here?
The Potency was inconclusive [activator, single point].

For `c1cnc(N2CCN(Cc3ccc4c(c3)OCO4)CC2)nc1`, which Potency is on record?
Its Potency is inconclusive [activator, full curve, poor fit].

With `O=Cc1c(Cl)nc2ccccn12` as the compound, how does the Potency read?
The Potency was “inactive”.

Which Potency does the source give for `COc1ccc([N+](=O)[O-])cc1NC(=O)CSCc1ccc(Br)cc1` here?
Its Potency is active: 12.6 µM.

Which Potency does the source give for `CCOC(=O)C(Cc1ccc(Cl)cc1Cl)c1ccno1` (stereo not given) here?
Its Potency is inconclusive [activator, single point].

Which Potency does the source give for `COc1ccc(C2=Nc3ccccc3N(C(=O)c3ccc(C)cc3)C2C(=O)NCc2ccccc2)cc1` (stereo not given) here?
The Potency was “inactive”.

With `Cc1ccccc1NC(=O)COC(=O)c1ccc2nc(C)c(C)nc2c1` as the compound, how does the Potency read?
Its Potency is inconclusive [activator, partial curve].

Which Potency does the source give for `CCN(C(=O)CSc1ccccn1)C1CCCCC1` here?
The Potency was inconclusive [activator, partial curve].

Which Potency does the source give for `CCCC(=O)NC(=S)Nc1ccc(S(=O)(=O)N2CCc3ccccc32)cc1` here?
The Potency was inconclusive [activator, partial curve].

For `CCCCCCCNC1=CC(=O)CC(c2ccco2)C1` (stereo not given), which Potency is on record?
The Potency was inconclusive [activator, full curve].

With `CC(C)c1ccc(NC(=O)CN2C(=O)CCc3cc(S(=O)(=O)N4CCOCC4)ccc32)cc1` as the compound, how does the Potency read?
Its Potency is inconclusive [activator, partial curve].

With `O=C(Nc1ccccc1F)C(Cc1ccccc1)N1Cc2ccccc2C1=O` (stereo not given) as the compound, how does the Potency read?
The Potency was inconclusive [activator, full curve].

With `FC(F)(F)c1cccc(OCC2CNC(=S)O2)c1` (stereo not given) as the compound, how does the Potency read?
The Potency was “inactive”.

For `COc1ccc(S(=O)(=O)NCCc2sc(-c3cccc(F)c3)nc2C)cc1`, which Potency is on record?
Its Potency is active: 25.1 µM.

With `Cc1cc(C(=O)c2ccccc2)c(NC(=O)CCl)s1` as the compound, how does the Potency read?
The Potency was inconclusive [activator, single point].

For `COc1cccc(C2=NN(C(=O)c3ccccc3)C(O)(C(F)(F)F)C2)c1` (stereo not given), which Potency is on record?
The Potency was inconclusive [activator, single point].

Which Potency does the source give for `Fc1ccc(-c2csc3ncnc(N4CCc5ccccc5C4)c23)cc1` here?
The Potency was inconclusive [activator, partial curve].

Which Potency does the source give for `COC(=O)c1ccc(CNC(=O)CSC2=NCCS2)cc1` here?
The Potency was inconclusive [activator, partial curve].

For `C/C(=N/Nc1cc(-c2ccccc2)nc(-c2ccccc2)n1)c1ccc(O)cc1`, which growth rescue (activation) is on record?
The growth rescue (activation) was inconclusive: -88.2% [activator].

With `CC(=O)C1=CCC(c2ccc(Cl)c(Cl)c2)N(S(=O)(=O)c2ccc(C)cc2)C1` (stereo not given) as the compound, how does the Potency read?
Its Potency is inconclusive [activator, single point].

With `O=[N+]([O-])c1ccccc1N/N=C/c1cccc(O)c1O` as the compound, how does the Potency read?
The Potency was “inactive”.

Which Potency does the source give for `N=C1SCC(=O)N1c1ncc(Cc2ccccc2Cl)s1` here?
The Potency was inconclusive [activator, full curve].

Which Potency does the source give for `CC(/C=C/c1ccccc1)=N\NC(=S)NC(C)C` here?
The Potency was inconclusive [activator, single point].

With `O=C(NCCN1CCCCC1)c1ccc(Cn2c(SCc3ccc(F)cc3)nc3cccnc32)cc1` as the compound, how does the Potency read?
The Potency was “inactive”.

With `O=C(NCc1ccc2c(c1)OCO2)C1CCC(CNS(=O)(=O)c2cccc3nsnc23)CC1` (stereo not given) as the compound, how does the Potency read?
Its Potency is inconclusive [activator, partial curve, poor fit].

For `COn1c(C)c(C)c2c3nonc3ccc21`, which Potency is on record?
The Potency was inconclusive [activator, partial curve].

With `Cc1nn(-c2ccccc2Cl)c2sc(C(=O)Nc3nnc(C4CC4)s3)cc12` as the compound, how does the Potency read?
Its Potency is inconclusive [activator, full curve, poor fit].
